# Where “and” joins values, the source holds several entries; their conditions need not be identical. Equal entries are not always repeated. This list was built around the results that the source calls inconclusive (neither active nor inactive); the mix of calls is not that of the screen. For some assays here: Potencies of inconclusive entries are doubtful fits and often do not repeat. For some assays here: “Side channel” marks fits to a control or component signal instead of the main read-out. Calls of active or inactive are those of the source. Unless noted, the call rests on the fitted dose curve; in most records, active means well fitted curve in the direction sought with a large enough effect; inconclusive means small, poorly fitted or top-dose-only effect, or another doubt; inactive means no such curve, though single readings can be large; an effect the other way counts as inactive or inconclusive.
# Tests used:
# [1] = Cell Viability - BJ (AID 421; calls by dose curve;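 further: potency means the concentration at half of the fitted maximal effect; cells exposed to compound for 40 hours at 37 °C before readout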); conditions: BJ fibroblast viability, qHTS
# Outline: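 Quantitative HTS: ATP depletion in BJ cells after 40 hr compound exposure in complete culture medium, detected with CellTiter-Glo; AC50 from standard Hill fits.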
# [2] = Cell Viability - N2a (AID 540); conditions: N2a mouse neuroblastoma cell viability; activity change, negative = cytotoxicity: at 92.2 µM (top of the series); further: nearly all actives have a fitted effect of over 45% in size; further: potency means the concentration at half of the fitted maximal effect;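 on activity change, negative = cytotoxicity: plate controls were DMSO alone for no effect and tamoxifen control for full effect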
# Outline: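 Luminescent ATP signal (CellTiter-Glo, 20 min at room temperature) served as the viability read-out after N2a cells were treated with compounds for 40 hours at 37 °C. Concentration-response data were fitted to the Hill equation for AC50.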
# [3] = Cellular Toxicity (caspase-3) Jurkat (AID 655); conditions: Jurkat caspase-3 activation, luminescence; caspase-3 activation: at 92.2 µM (top of the series), DMSO = 0%, tamoxifen = 100%;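 further: cells exposed to compound for 16 h at 37 °C before reading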
# Outline: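 Luminescent caspase-3/7 readout (aminoluciferin substrate cleavage) in human T-cell leukemia Jurkat cells after 16 hr compound exposure. Concentration-response normalized to DMSO and 100 uM tamoxifen; AC50 by standard Hill equation.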
# [4] = Cell Viability - LYMP2-001 (AID 921); conditions: LYMP2-001 lymphoblastoid cell viability; activity change, negative = cytotoxic: at 92.2 µM (top of the series);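 further: cells exposed to compound for 24 h at 37 °C; nearly all actives have a fitted effect of over 70% in size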; further: potency means the concentration at half of the fitted maximal effect;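 on activity change, negative = cytotoxic: 0% = DMSO only and full inhibition = tetraoctylammonium bromide control wells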
# Outline: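 CellTiter-Glo luminescence (intracellular ATP) after 24 hr compound exposure at 37 C, 2500 lymphoblastoid cells/well in complete medium. AC50 fitted with standard Hill equation; tetraoctylammonium bromide positive control.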
# [5] = Cell Viability - LYMP2-004 (AID 966); conditions: LYMP2-004 lymphoblastoid cell viability, qHTS; activity change, negative = cytotoxicity: at 92.2 µM (top of the series);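 further: potency means the concentration at half of the fitted maximal effect; cells exposed to compound for 24 h; nearly all actives have a fitted effect of over 65% in size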
# Outline: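 Cells seeded 2500/well, rested 5 hr at 37 C, dosed across a concentration series, incubated 24 hr at 37 C, then CellTiter-Glo added for 30 min at room temperature and luminescence read. Hill fitting gave AC50.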
# [6] = Cell Viability - LYMP2-010 (AID 981); conditions: LYMP2-010 lymphoblastoid cell viability, qHTS; series mostly up to 92.2 µM; further: potency means the concentration at half of the fitted maximal effect; nearly all actives have a fitted effect of over 55% in size
# Outline: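 Luminescent ATP signal (CellTiter-Glo) served as the viability read-out. Cells of the human lymphoblastoid line were treated with compound over a concentration range for 24 hours at 37 C, and AC50 values came from Hill-equation modeling.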
# [7] = Cell Viability - LYMP2-026 (AID 989); conditions: LYMP2-026 lymphoblastoid cell viability, qHTS; activity change, negative = cytotoxic: at 92.2 µM (top of the series);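 further: cells exposed to compound for 24 h at 37 °C; nearly all actives have a fitted effect of over 50% in size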; further: potency means the concentration at half of the fitted maximal effect; on activity change, negative = cytotoxic: on the % scale 0 is the no-effect control and ±100 the full control effect
# Outline: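 Luminescent ATP signal (CellTiter-Glo, 30 min room temperature) measures viable lymphoblastoid cells after 24 hr compound treatment at 37 C. Decreased ATP reflects acute toxicity; AC50 values come from Hill-equation modeling.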
# [8] = target: Nuclear receptor ROR-gamma (Homo sapiens) (UniProt P51449); experiment: qHTS assay for small molecule antagonists of the retinoid-related orphan receptor gamma (ROR-gamma) signaling pathway (AID 651802); conditions: ROR-gamma antagonist cell reporter assay; series mostly up to 92.2 µM; further: potency means the concentration at half of the fitted maximal effect; nearly all actives have a fitted effect of over 60% in size
# Outline: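 CHO, TET-inducible ROR + RORE-LUC reporter, 1536-well qHTS. Compound pinned, doxycycline added, 16hr 37C/5% CO2. ONE-Glo, 30 min RT, luminescence; signal drop scored as antagonism.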
# [9] = qHTS assay for cell viability of HEK293 cells (AID 743288); conditions: ATP luminescence (CellTiter-Glo), 18 h; max response: stronger effect = lower value; further: potency means the concentration at half of the fitted maximal effect; nearly all actives have a fitted effect of over 50% in size
# Outline: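 Environmental chemicals tested in qHTS format against parental HEK293 cells; 18 h treatment, 37 C; read-out ATP luminescence (CellTiter-Glo), 30 min RT development.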
# [10] = Cell Viability - SK-N-SH (AID 435; calls by dose curve; further: potency means the concentration at half of the fitted maximal effect); conditions: SK-N-SH neuroblastoma cell viability qHTS
# Outline: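 CellTiter-Glo ATP luminescence, 20 min RT read; cells pre-plated 5 hr, compound 40 hr at 37 °C, 1500 cells/well, complete medium. Normalized DMSO = 0, 100 uM tamoxifen = 100% inhibition; Hill-fit AC50.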
# [11] = Cell Viability - Renal Proximal Tubule (AID 545); conditions: renal proximal tubule cells viability; activity change, negative = cytotoxicity: at 91.7 µM (top of the series) unless noted; further: nearly all actives have a fitted effect of over 40% in size
# Outline: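 Rat kidney proximal tubule cells, freshly isolated; 1000 cells/well, 5 hr settle, compound 40 hr 37 °C. CellTiter-Glo 20 min RT, luminescence read. AC50 by standard Hill fit.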
# [12] = Cell Viability - LYMP2-017 (AID 972); conditions: LYMP2-017 lymphoblastoid cell viability; series mostly up to 92.2 µM; further: potency means the concentration at half of the fitted maximal effect; nearly all actives have a fitted effect of over 55% in size
# Outline: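 2500 cells/well, 5 h 37 C; cpd 24 h 37 C in complete medium; CellTiter-Glo, 30 min RT; luminescence (ATP). AC50 via Hill fit, qHTS.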
# [13] = Cell Viability - LYMP2-002 (AID 977); conditions: LYMP2-002 lymphoblastoid cell viability, qHTS; activity change, negative = cytotoxic: at 92.2 µM (top of the series);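 further: compound exposure lasted 24 h at 37 °C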; further: potency means the concentration at half of the fitted maximal effect;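 on activity change, negative = cytotoxic: plate controls were DMSO only for no effect and 92 µM tetraoctylammonium bromide for full effect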
# Outline: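 Cytotoxicity is scored as concentration-dependent loss of cellular ATP in a human lymphoblastoid line after 24 hr compound treatment at 37 C. AC50 is obtained by modelling concentration-response data with the Hill equation.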
# [14] = Cell Viability - LYMP2-022 (AID 987); conditions: LYMP2-022 lymphoblastoid cell viability; viability change, negative = cytotoxic: at 92.2 µM (top of the series); further: potency means the concentration at half of the fitted maximal effect; nearly all actives have a fitted effect of over 55% in size
# Outline: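 qHTS: human lymphoblastoid cells 2500/well; 5 hr 37 C; cpd added; 24 hr 37 C; CellTiter-Glo, 30 min RT; luminescence. AC50 via Hill fit; tetraoctylammonium bromide positive ctrl.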
# [15] = Cell Viability - NIH 3T3 (AID 541); conditions: NIH 3T3 cell viability, qHTS; activity change, negative = cytotoxicity: at 92.2 µM (top of the series);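 further: plate controls were DMSO alone for no effect and tamoxifen positive control for full effect; nearly all actives have a fitted effect of over 25% in size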
# Outline: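 Luminescent ATP signal (CellTiter-Glo) served as the viability read-out after NIH 3T3 cells were exposed to compounds over a concentration range for 40 hr at 37 °C. Hill-equation modelling of concentration-response data gave AC50.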
# [16] = target: Vitamin D3 receptor (Homo sapiens) (UniProt P11473); experiment: qHTS assay for small molecule agonists of vitamin D receptor signaling (AID 588543; calls by dose curve; further: potency means the concentration at half of the fitted maximal effect;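 on activation: 0% = DMSO basal and 100% = reference agonist control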); conditions: HEK293T VDR-UAS-bla, beta-lactamase ratio, 16 h
# Outline: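 β-lactamase reporter, VDR-UAS-bla HEK293T, agonist mode. Cells plated 5 h at 37 °C, compound titration 16 h at 37 °C, CCF4 dye 2 h RT, ratio 460/530 nm. Hill fit → EC50, efficacy vs 50 nM 1α,25-(OH)2D3.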
# [17] = Cell Viability - HepG2 (AID 433; calls by dose curve;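 further: potency means the concentration at half of the fitted maximal effect; potency for ATP loss meaning cytotoxicity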); conditions: qHTS
# Outline: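 ATP luminescence (CellTiter-Glo) after 40 h compound exposure, 37 °C, HepG2, 1500 cells/well, complete medium. Normalized: DMSO = basal, 100 uM tamoxifen = 100% inhibition. AC50 via standard Hill equation.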
# [18] = Cell Viability - LYMP2-009 (AID 968); conditions: LYMP2-009 lymphoblastoid cell viability; series mostly up to 92.2 µM;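 further: potency means the concentration at half of the fitted maximal effect; cells exposed to compound for 24 h at 37 °C; nearly all actives have a fitted effect of over 55% in size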
# [19] = target: Peroxisome proliferator-activated receptor delta (Homo sapiens) (UniProt Q03181); experiment: qHTS assay for small molecule agonists of peroxisome proliferator-activated receptor delta signaling (AID 588534; calls by dose curve; further: potency means the concentration at half of the fitted maximal effect); conditions: HEK293T PPARdelta-UAS-bla, beta-lactamase ratio, 18 h; activation: at 76.7 µM (top of the series)
# Outline: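 Fluorescence from CCF4 substrate cleavage by beta-lactamase reporter, read 2 hrs at RT, measured agonist activity. Compounds were tested with 18 hrs exposure at 37 C. Concentration-response data fitted to Hill equation.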
# [20] = qHTS assay for small molecule activators of the p53 signaling pathway (AID 651743; active means well fitted activation curve with a large enough effect in the signal ratio, not every such curve was filed as active; inconclusive means small, poorly fitted or top-dose-only effect, or a change in a side signal; the % refers to the signal ratio; further: potency means the concentration at half of the fitted maximal effect; on activation: % of control where 0% means no effect); conditions: HCT-116 p53RE-bla, beta-lactamase FRET ratio, 16 h; activation: stronger effect = higher value
# Outline: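 Read-out is fluorescence intensity from the LiveBLAzer B/G FRET substrate, added for 2 hours at room temperature after HCT-116 p53RE-bla cells had been incubated with compounds for 16 hours at 37 C.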
# [21] = activation: at 76.8 µM (top of the series)
# Tags describe the fitted curve by direction and shape or compound fluorescence and quenching.
# Sequence of UniProt P51449 (P51449 whole entry, looked up): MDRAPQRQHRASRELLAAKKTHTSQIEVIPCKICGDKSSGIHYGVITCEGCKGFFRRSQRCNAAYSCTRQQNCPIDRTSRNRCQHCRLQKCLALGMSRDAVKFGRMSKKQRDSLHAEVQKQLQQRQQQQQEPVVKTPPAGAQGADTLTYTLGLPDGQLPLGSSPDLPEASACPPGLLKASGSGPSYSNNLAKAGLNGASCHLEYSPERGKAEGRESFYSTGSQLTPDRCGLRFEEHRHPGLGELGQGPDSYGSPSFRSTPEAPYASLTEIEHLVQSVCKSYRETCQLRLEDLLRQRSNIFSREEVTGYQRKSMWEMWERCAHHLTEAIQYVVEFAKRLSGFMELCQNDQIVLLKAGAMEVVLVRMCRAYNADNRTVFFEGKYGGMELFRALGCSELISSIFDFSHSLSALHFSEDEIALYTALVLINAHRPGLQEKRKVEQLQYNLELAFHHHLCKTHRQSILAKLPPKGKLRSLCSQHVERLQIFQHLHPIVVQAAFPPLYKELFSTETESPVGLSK
# Sequence of UniProt Q03181 (Q03181 whole entry, looked up): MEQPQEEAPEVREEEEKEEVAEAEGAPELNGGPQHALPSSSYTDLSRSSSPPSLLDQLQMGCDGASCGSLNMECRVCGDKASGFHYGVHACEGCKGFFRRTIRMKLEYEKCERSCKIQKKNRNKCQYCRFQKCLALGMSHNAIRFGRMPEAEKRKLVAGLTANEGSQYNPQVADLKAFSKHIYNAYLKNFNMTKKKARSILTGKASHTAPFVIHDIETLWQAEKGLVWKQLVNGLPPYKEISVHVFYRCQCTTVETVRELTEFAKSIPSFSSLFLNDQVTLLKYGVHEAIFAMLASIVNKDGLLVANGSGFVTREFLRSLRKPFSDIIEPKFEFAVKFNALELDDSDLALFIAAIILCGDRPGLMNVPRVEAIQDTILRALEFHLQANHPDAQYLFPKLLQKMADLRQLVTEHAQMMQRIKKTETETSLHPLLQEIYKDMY
smiles,measurement,setting,value
N#CSCSC#N,Potency,[1],active: 14.4 µM
same,Potency,[2],active: 25.1 µM
same,caspase-3 activation,[3],active: -5.48%
same,Potency,[4],active: 5.01 µM
same,Potency,[5],active: 6.31 µM
same,Potency,[6],active: 3.98 µM
same,Potency,[7],active: 7.94 µM
same,Potency,[8],"inconclusive: 37.6 µM [inhibitor, full curve, poor fit]"
same,Potency,[9],"inconclusive: 39.8 µM [cytotoxic, partial curve, poor fit]"
ClC1=C(Cl)C2(Cl)C3C(Cl)C(Cl)CC3C1(Cl)C2(Cl)Cl (stereo unspecified),Potency,[1],inconclusive: 69 µM [single point]
same,Potency,[10],inconclusive: 51.8 µM [single point]
same,"activity change, negative = cytotoxicity",[2],active: -82.9%
same,"activity change, negative = cytotoxicity",[11],inconclusive: -43.8%
same,caspase-3 activation,[3],active: 81.5%
same,Potency,[4],inactive
same,Potency,[5],"inconclusive: 50.1 µM [cytotoxic, partial curve, poor fit]"
same,Potency,[12],"inconclusive: 79.4 µM [cytotoxic, single point]"
same,"activity change, negative = cytotoxic",[13],inconclusive: -30.1% [cytotoxic]
same,Potency,[6],"inconclusive: 50.1 µM [cytotoxic, partial curve, poor fit]"
same,Potency,[14],"inconclusive: 50.1 µM [cytotoxic, partial curve, poor fit]"
same,Potency,[7],"inconclusive: 50.1 µM [cytotoxic, partial curve, poor fit]"
same,Potency,[9],"inconclusive: 50.1 µM [cytotoxic, partial curve, poor fit]"
CC(C)(COCC1CO1)COCC1CO1 (stereo unspecified),Potency,[1],inactive: > 92 µM
same,"activity change, negative = cytotoxicity",[15],active: -105%
same,"activity change, negative = cytotoxicity",[11],"inactive: -8.41% [at 91.7 µM, primary cells of rat origin]"
same,Potency,[4],inactive
same,Potency,[16]; [21],inactive
Nc1ccc(-c2ccc(N)c(Cl)c2)cc1Cl,Potency,[1],inconclusive: 105 µM [single point]
same,Potency,[10],active: 3.05 µM
same,"activity change, negative = cytotoxicity",[11],inconclusive: -70.9%
same,caspase-3 activation,[3],inconclusive: 47.8%
same,Potency,[13],"inconclusive: 39.8 µM [cytotoxic, partial curve, poor fit]"
same,Potency,[14],"inconclusive: 25.1 µM [cytotoxic, full curve, poor fit]"
same,Potency,[7],"inconclusive: 50.1 µM [cytotoxic, partial curve, poor fit]"
same,activation,[16]; [21],inconclusive: 0.674%
same,activation,[16]; at 76.8 µM (top of the series),inactive: 0.552%
same,Potency,[8],"inconclusive: 42.2 µM [inhibitor, partial curve, poor fit]"
CCCCOC(C)=O,Potency,[1],inactive: > 92 µM
O=[N+]([O-])C(Br)Br,Potency,[1],inconclusive: 102 µM [single point]
same,Potency,[17],inconclusive: 99.4 µM [single point]
same,Potency,[10],inconclusive: 62.5 µM [single point]
same,caspase-3 activation,[3],inconclusive: -8.8%
same,Potency,[5],active: 25.1 µM
same,Potency,[7],active: 20 µM
NC1CCC(CC2CCC(N)CC2)CC1 (stereo unspecified),"activity change, negative = cytotoxicity",[15],inconclusive: -30.3%
same,Potency,[4],"inconclusive: 39.8 µM [rising, single point]"
O=C(O)COc1ccc(Cl)cc1Cl,Potency,[1],inactive: > 92 µM
same,Potency,[16]; [21],"inconclusive: 39.8 µM [side channel, rising, partial curve, poor fit]"
Oc1cc(Cl)c(Cl)c(Cl)c1Cl,Potency,[1],inconclusive: 118 µM [partial curve]
same,Potency,[17],active: 53.3 µM
same,Potency,[10],inconclusive: 86.2 µM [partial curve]
same,Potency,[2],active: 31.6 µM
same,"activity change, negative = cytotoxicity",[15],inconclusive: -70%
same,"activity change, negative = cytotoxicity",[11],"inconclusive: -69.8% [at 91.7 µM, primary cells of rat origin]"
same,Potency,[18],"inconclusive: 79.4 µM [cytotoxic, single point]"
same,Potency,[12],"inconclusive: 79.4 µM [cytotoxic, single point]"
same,Potency,[19],"inconclusive: 39.8 µM [side channel, rising, single point]"
same,Potency,[20],active: 39.8 µM
same,Potency,[8],active: 23.7 µM
C[C@H]1CCCC(=O)CCC/C=C/c2cc(O)cc(O)c2C(=O)O1,Potency,[1],inconclusive: 115 µM [single point]
same,Potency,[10],active: 59.8 µM and inconclusive: 43.5 µM [partial curve]
same,"activity change, negative = cytotoxicity",[15],inconclusive: -64.1%
same,"activity change, negative = cytotoxicity",[11],inconclusive: -51.3%
same,Potency,[4],"inconclusive: 25.1 µM [cytotoxic, full curve, poor fit] and inconclusive: 50.1 µM [cytotoxic, partial curve, poor fit]"
same,Potency,[18],"inconclusive: 50.1 µM [cytotoxic, partial curve, poor fit]"
same,Potency,[12],"inconclusive: 50.1 µM [cytotoxic, partial curve, poor fit] and inconclusive: 100 µM [cytotoxic, single point]"
same,Potency,[6],"inconclusive: 100 µM [cytotoxic, partial curve, poor fit] and inconclusive: 63.1 µM [cytotoxic, partial curve, poor fit]"
same,Potency,[14],"inconclusive: 39.8 µM [cytotoxic, partial curve, poor fit]"
same,Potency,[7],"inconclusive: 50.1 µM [cytotoxic, single point] and inactive"
same,Potency,[20],"inconclusive: 31.6 µM [activator, single point]"
same,activation,[20],inconclusive: 8.18%
